# Results published in paper PMC6919601, “Identification of Plasmodium dipeptidyl aminopeptidase allosteric inhibitors by high throughput screening” (PLoS ONE, 2019).
# Among all 110,000 compounds or so, about 230 (0.21%) showed an effect of 50% or more. Some of the results follow.
# Molecular target: DPAP1 (Plasmodium falciparum, UniProt Q8IIJ9)
# Test: primary screen, percent inhibition; read by cleavage of a fluorogenic dipeptide substrate; higher = more effect of the substance
# Design: species or system P. falciparum D10 trophozoite lysates; single well
# 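Also: 30 min substrate incubation versus DMSO and 10 µM JCP410 controls.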
# DPAP1, sequence (Q8IIJ9 whole entry, looked up): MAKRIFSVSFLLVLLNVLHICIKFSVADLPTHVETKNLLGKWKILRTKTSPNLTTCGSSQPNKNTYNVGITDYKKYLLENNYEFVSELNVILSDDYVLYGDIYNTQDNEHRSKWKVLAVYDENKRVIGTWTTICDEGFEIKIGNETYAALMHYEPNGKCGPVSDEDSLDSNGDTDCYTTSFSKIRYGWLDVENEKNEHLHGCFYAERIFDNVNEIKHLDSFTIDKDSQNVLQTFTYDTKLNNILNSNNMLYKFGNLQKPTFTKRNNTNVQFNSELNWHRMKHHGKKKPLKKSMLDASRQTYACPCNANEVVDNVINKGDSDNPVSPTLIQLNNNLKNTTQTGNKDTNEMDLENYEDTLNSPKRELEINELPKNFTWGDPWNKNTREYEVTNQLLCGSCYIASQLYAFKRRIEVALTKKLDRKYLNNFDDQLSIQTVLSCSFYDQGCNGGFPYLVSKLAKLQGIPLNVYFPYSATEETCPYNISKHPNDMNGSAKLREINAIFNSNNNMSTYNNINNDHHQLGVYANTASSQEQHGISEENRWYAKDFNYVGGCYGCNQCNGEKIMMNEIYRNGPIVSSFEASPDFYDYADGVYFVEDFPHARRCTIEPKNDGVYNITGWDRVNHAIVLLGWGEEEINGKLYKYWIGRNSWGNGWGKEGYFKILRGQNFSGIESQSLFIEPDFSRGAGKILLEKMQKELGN
row,SMILES,% Inhibition @ 10 uM
1,FC(F)(F)C1=CC(c2cccs2)=NCCN1,-3.92%
2,Cc1ccc(CCNC(=O)c2nnc(-c3ccc4c(c3)OCO4)o2)cc1,-2.88%
3,COc1cc(C(=O)N/C(=C/c2ccc(F)cc2)C(=O)NCCC(=O)O)cc(OC)c1OC,20.8%
4,CCN1CCN(C(c2cccs2)C(C)NC(=O)C(=O)NCc2cccnc2)CC1 (stereo not drawn),3.96%
5,COCCCNC(=O)c1ccc(CS(=O)Cc2ccc(Cl)cc2)o1 (stereo not drawn),7.13%
6,O=C(CCN1CCCCC1)NCC1OCCc2ccccc21 (stereo not drawn),-1.06%
7,CCCCC(C(=O)Nc1ccc(F)cc1)N1C(=O)c2ccccc2C1=O (stereo not drawn),1.82%
8,O=C(COCc1cc(-c2ccc(F)cc2)on1)NCCCn1ccnc1,-5.84%
9,CC(C)Oc1ccc(-c2[nH]c3c(C#N)cnn3c2NC2CCCC2)cc1,9.74%
10,CCC(C)N1C(=O)CN(C2CCC(C)CC2)C(=O)C1c1ccc(C)cc1 (stereo not drawn),4.47%
11,CC1=C(C(=O)Nc2ccc(F)cc2)C(c2cccc(Cl)c2Cl)NC(S)=N1 (stereo not drawn),-3.63%
12,COc1ccc(-c2cc(C(F)(F)F)n3nc(C(=O)NCc4ccco4)cc3n2)cc1OC,1.12%
13,CC(C)c1ccc(CNC(=O)c2ccc3ccccc3n2)cc1,-1.55%
14,CCCc1n(CC(O)COc2ccc(OC)cc2)c2ccccc2[n+]1C (stereo not drawn),-7.9%
15,CC(=O)Nc1ccc(C2=NN(c3ccccc3)C(c3ccccc3)C2)cc1 (stereo not drawn),5.48%
16,O=C(O)C1CCN(C2CC(=O)N(c3ccc(Cl)cc3)C2=O)CC1 (stereo not drawn),5.09%
17,Cc1ccc(-c2nnc(C3CCN(S(=O)(=O)c4ccc5[nH]c(-c6ccccc6)nc5c4)CC3)o2)cc1,12.7%
18,OCC1CCCCN1CC(O)COc1ccc(C23CC4CC(CC(C4)C2)C3)cc1 (stereo not drawn),-1.05%
19,O=C(Nc1c2c(nn1-c1cccc(Cl)c1)CS(=O)(=O)C2)C12CC3CC(CC(C3)C1)C2,9.36%
20,COc1ccc(C(=O)c2sc3nc(C)c(Cl)c(C)c3c2N)cc1,-0.736%
21,O=C(CN1CCCC1)N1c2ccccc2Sc2ccc(Cl)cc21,0.132%

row,SMILES,% Inhibition @ 10 uM
1,O=C1c2[nH]nc(-c3ccccc3O)c2C(c2ccccc2F)N1CCCO (stereo not drawn),-3.12%
2,CCCCN(C)C(=O)C1CCCN(c2nnc(C)c3c(C)n(-c4ccccc4)nc23)C1 (stereo not drawn),3.91%
3,COc1cccc(C(=O)Nc2ccc(NC(=O)c3ccco3)cc2)c1,3.25%
4,O=C(NCCCO)C(=O)NCc1ccncc1,-13.4%
5,O=C(c1oc(=O)c2ccccc2c1-c1ccccc1)N1CCCN(Cc2ccc(F)cc2)C1,-4.74%
6,CN(C)CCNC(=O)C12CC3CC(C)(CC(C)(C3)C1)C2,1.33%
7,CCOc1cc(CNC(=O)c2cnc(SC)nc2-c2ccccc2)cc(OCC)c1OCC,-1.95%
8,CC1CCCN(Cc2c(O)ccc3c(=O)c(-c4ccc5c(c4)OCCO5)coc23)C1 (stereo not drawn),-3.65%
9,FC(F)(F)c1ccc(CN2CCN(c3cccc(Cl)c3)CC2)cc1,2.33%
10,CCOC(=O)c1ccccc1NC(=O)c1cc(OC)cc(OC)c1,-4.59%
11,Cc1cccc(C(=O)Nc2ccc(O)cc2)c1,-9.31%
12,COc1cccc2c(O)c(NC(=O)NCc3ccc(OC(F)(F)F)cc3)cnc12,-3.08%
13,CC1CN(C2C3CC4CC(C3)CC2C4)CC(C)O1 (stereo not drawn),-4.14%
14,CCc1cc(=O)oc2c(C)c3c(cc12)CN(Cc1ccccc1)CO3,-6.29%
15,CC1(C)CC(=O)C2=C(C1)OC(N)=C(C#N)C2c1ccc(COc2ccccc2Br)o1 (stereo not drawn),2.99%
16,Cc1ccc(-c2csc(/C(C#N)=C/c3ccco3)n2)cc1,1.44%
17,Cc1ccc(C)n1-c1ccccc1CO,-5.14%
18,Cc1cc(C)c(C(=O)/C=C/c2cccs2)c(O)n1,0.605%
19,CSc1ccc(S(=O)(=O)N(CC(=O)N2CCN(C)CC2)c2ccc(C)cc2)cc1,-1.64%
20,CC(C)C(=O)Nc1cccc(C(=O)Nc2ccccc2C#N)c1,-1.74%
21,Cc1sc2ncn(CC(=O)NCCCC(=O)N3CCN(c4ccccn4)CC3)c(=O)c2c1C,-6.13%

row,SMILES,% Inhibition @ 10 uM
1,Fc1ccccc1N1CCN(CCc2ccccc2)CC1,1.38%
2,O=C(O)c1ccc(Cn2nc(N3CCCCC3)ccc2=O)o1,-2.83%
3,COc1ccc(-c2nc3cc(C)ccn3c2NC(=O)c2ccccc2C)cc1,-1.29%
4,O=C(NCC12CC3CC(C1)CC(CNC(=O)c1ccc(F)cc1)(C3)C2)c1ccc(F)cc1,2.7%
5,Cc1nc2ccc(S(=O)(=O)NCC(=O)NCCCc3ccccc3)cc2s1,0.747%
6,FC(F)(F)c1nnc2sc(COc3ccccc3)nn12,0.635%
7,O=C(O)c1ccccc1C(=O)OCc1ccc(F)cc1F,-3.21%
8,CC(C)(C)c1ccc(S(=O)(=O)c2ccccc2)cc1,3.32%
9,CN(CCNC(=O)c1ccc(CS(=O)(=O)c2ccc(Br)cc2)o1)C1CCCCC1,14.3%
10,O=C(Nc1nnc(/N=C/c2ccccc2)s1)c1cc(Cl)cc(Cl)c1,18.1%
11,CCN(Cc1ccccc1)C(=O)CSc1nncn2c1cc1oc(C)cc12,-10.9%
12,Cc1cc(C)c(S(=O)(=O)Nc2ccc(S(=O)(=O)N3CCC(C)CC3)cc2)c(C)c1,2.48%
13,CCOC(=O)c1[nH]c2ccccc2c1N,40.4%
14,O=C(NCCCn1ccnc1)c1nc(CS(=O)(=O)c2ccccc2)no1,2.77%
15,CCOc1ccccc1C(=O)Nc1sc2c(c1C(=O)OC(C)C)CCCC2,6.91%
16,CC1C(C#N)=C(N)OC2=C1C(=O)CC(c1ccccc1)C2 (stereo not drawn),-2.69%
17,O=C(Nc1ccc(Cl)cc1)c1cccc(C(=O)Nc2ccc(Cl)cc2)c1,0.526%
18,Cc1ccc2ncc(C(=O)c3ccccc3)c(O)c2c1,2.08%
19,C=CCOc1cccc(C2C(C(=O)c3ccc(C)cc3)=C(O)C(=O)N2Cc2cccnc2)c1 (stereo not drawn),-0.0619%
20,O=c1c(Cl)c(NCCN2CCOCC2)cnn1C12CC3CC(CC(C3)C1)C2,3.32%
21,Cc1nc(C23CC4CC(CC(C4)C2)C3)co1,-0.0369%
